From the RNAGym collection of RNA variant scans (doi:10.7554/elife.90254)
The source gives no read counts; variants with many changes may rest on few reads.

B1: LINE1-full (parent)
chain: UACGUAGGUGGUUUUCCCCUGAUAGUGCUAAGGGGGCCUGGAAGUUUGGACUGGGCAGAGCUCAACACAGCGUGGCAAAGUGGCUGUGGCUAGACUGCCUCUCUGGAUUCCUCGUCACUCAGCAGGGCAUCUCUGAGAGAAAUGCC

Variants of: B1
Assay: self-cleavage, relative activity (ratio to wild type); higher = more cleavage; in vitro, sequencing; the parent is a self-cleaving ribozyme

Variant | self-cleavage
UACGUAGGUGGUUUUCCCCUGAUAGUGCUAAGGGGGCCUGGAAGUUUGGACUGGGCAGAGCCCAACACAGCGUGGCGAAGUGGCUGUGGCUAGACUGCCUCUCUGGAUUCCUCGUCACUCAGCUGGGCAUCUCUGUGGGAAAUGCC | 0.03
UACGUAGGUGGUUUUCCCCUGAUAGUGCUAAGGGGGCCUGGAAGUUUGGACUGGGCAGAGCCCAACACAGCGUGGCGAAGUGGCUGUGGCUAGACUGCCUCUCUGGAUUCCUCGUCACUCAGCAGGGCAUCUCUGAGAGAAGUGCC | 0.05
UACGUAGGUGGUUUUCCCCUGAUAGUGCUAAGGGGGCCUGGAAGUUUGGACUGGGCAGAGCCCAACACAGCGUGGCGAAGCGGCUGUGGCUAGUCUGCCUCUCUGGAUUCCUCGUCACUCAGCAGGGCAUCUCUGAGAGAAAUGCC | 0
UACGUAGGUGGUUUUCCCCUGAUAGUGCUAAGGGGGCCUGGAAGUUUGGACUGGGCAGAGCCCAACACAGCGUGGCUAAGUGUCUGUGGCUAGACUGCCUCUCUGGAUUCCUCGUCACUCGGCAGGGCGUCUCUGAGAGAGAUGCC | 0.02
UACGUAGGUGGUUUUCCCCUGAUAGUGCUAAGGGGGCCUGGAAGUUUGGACUGGGCAGAGCCCAACACAGCGUGGCUAAGUGGCUGUGGCUAGACUACCUCUCUGGAUUCCUCGUCACUCAGCAGGGCAUCUCUGAGAGAAAUGCC | 0.01
UACGUAGGUGGUUUUCCCCUGAUAGUGCUAAGGGGGCCUGGAAGUUUGGACUGGGCAGAGCCCAACACAGCGUGGCAGAGUGGCUGUGGCUAGACUGCCCCUCUGGAUUCCUCGUCACUCAGCAGGGCAUCUCUGAGAGAAAUGCC | 0
UACGUAGGUGGUUUUCCCCUGAUAGUGCUAAGGGGGCCUGGAAGUUUGGACUGGGCAGAGCCCAACACAGCGUGGCAUUGUGGCUGUGGCUAGACUGCCUCUCUGGAUUCCUCGUCACUCAGCAGGGCAUCUCUGAGAGAAAUGCC | 0.08
UACGUAGGUGGUUUUCCCCUGAUAGUGCUAAGGGGGCCUGGAAGUUUGGACUGGGCAGAGCCCAACACAGCGUGGCAUAGUGGCUGUGGCUAGACUGCCUCUCUGGAUUCCUCGUCACUCAGCAGGGCAUCUCUGGGAGAAAUGCC | 0
UACGUAGGUGGUUUUCCCCUGAUAGUGCUAAGGGGGCCUGGAAGUUUGGACUGGGCAGAGCCCAACACAGCGUGGCAUAGUGGCUGUGGCCAGACUGCCUCUCUGGAUUCCUUGUCACUCAGCAGGGCAUCUCUGAGAGAAAUGCC | 0.03
UACGUAGGUGGUUUUCCCCUGAUAGUGCUAAGGGGGCCUGGAAGUUUGGACUGGGCAGAGCCCAACACAGCGUGGCAUAGUGGCUGUGGCUAGACUGCCUCUCUGGAUUCCUCGCCACUCAGCAGGGCAUCUCUGAGAGAAAUGCC | 0.02
UACGUAGGUGGUUUUCCCCUGAUAGUGCUAAGGGGGCCUGGAAGUUUGGACUGGGCAGAGCCCAACACAGCGUGGCAAGGUGGCUGUAGCUAGACUGCCUCUCUGGAUUCCUCGUCACUCAGCAGGGCAUCUCUGAGAGAAAUGCC | 0.03
UACGUAGGUGGUUUUCCCCUGAUAGUGCUAAGGGGGCCUGGAAGUUUGGACUGGGCAGAGCCCAACACAGCGUGGCAAGGUGGCUGAGGCUAGACUGCCUCUCUGGAUUCCUCGUCACUCAGCAGGGCAUCUCUGAGAGAAAUGCC | 0.08
UACGUAGGUGGUUUUCCCCUGAUAGUGCUAAGGGGGCCUGGAAGUUUGGACUGGGCAGAGCCCAACACAGCGUGGCAAGGUGGCUGCGGCUAGACUGCCUCUCUGGAUUCCUCGUCACUCAGCAGGGCAUCUCUGAGAGAAAUGCC | 0.77
UACGUAGGUGGUUUUCCCCUGAUAGUGCUAAGGGGGCCUGGAAGUUUGGACUGGGCAGAGCCCAACACAGCGUGGCAAGGUGGCUGUGGCUAGACCGCCUCUCUGGAUUCCUCGUCACUCAGCAGGGCAUCUCUGAGAGGAAUGCC | 0
UACGUAGGUGGUUUUCCCCUGAUAGUGCUAAGGGGGCCUGGAAGUUUGGACUGGGCAGAGCCCAACACAGCGUGGCAAGGUGGCUGUGGCUAGACUGCCUCUCUGGAUCCCACGUCACUCAGCAGGGCAUCUCUGAGAGGAAUGCC | 0
UACGUAGGUGGUUUUCCCCUGAUAGUGCUAAGGGGGCCUGGAAGUUUGGACUGGGCAGAGCCCAACACAGCGUGGCAAGGUGGCUGUGGCUAGACUGCCUCUCUGGAUUCCACGCCACUCAGCAGGGCAUCUCUGAGAGAAAUGCC | 0
UACGUAGGUGGUUUUCCCCUGAUAGUGCUAAGGGGGCCUGGAAGUUUGGACUGGGCAGAGCCCAACACAGCGUGGCAAUGUGGCUGUGGCUAGACUGCCUCUCUGGAUUCCUCGUCACUCAGCAGGACGUCUCUGAGAGAAAUGCC | 0.03
UACGUAGGUGGUUUUCCCCUGAUAGUGCUAAGGGGGCCUGGAAGUUUGGACUGGGCAGAGCCCAACACAGCGUGGCAAAGUGGCUGUGGCUGGACUGCCUCUCUGGAUACCUCGUCACUCAGCAGGGCAUCUCUGGGAGAAAUGCC | 0.04
UACGUAGGUGGUUUUCCCCUGAUAGUGCUAAGGGGGCCUGGAAGUUUGGACUGGGCAGAGCCCAACACAGCGUGGCAAAGUGGCUGUGGCUAGACUGCCUCUCUGGGCUCCUCGUCACUCAGCAGGGCAUCUCUGAGAGAAAUGCC | 0
UACGUAGGUGGUUUUCCCCUGAUAGUGCUAAGGGGGCCUGGAAGUUUGGACUGGGCAGAGCCCAACACAGCGUGGCAAAGUGGCUGUGGCUAGACUGCCUCUCUGGAUUCCUCGUCUCUCAGCAGGGCAUCUCUGAGAGAGAUGCC | 0.04

Variant | self-cleavage
UACGUAGGUGGUUUUCCCCUGAUAGUGCUAAGGGGGCCUGGAAGUUUGGACUGGGCAGAGCCCAACACAGCGUGGCAAAGUGGCUGUGGCUAGACUGCCUCUCUGGAUUCCUCGUCUCUUAGCAGGGCAUCUCUGAGAGAAAUGCC | 0.01
UACGUAGGUGGUUUUCCCCUGAUAGUGCUAAGGGGGCCUGGAAGUUUGGACUGGGCAGAGCCCAACACAGCGUGGCAAAGUGGCUGUGGCUAGACUGCCUCUCUGGAUUCCUCGUCACUCCGCAGGGCAUCUCUGAGAGAAGUGCC | 0.09
UACGUAGGUGGUUUUCCCCUGAUAGUGCUAAGGGGGCCUGGAAGUUUGGACUGGGCAGAGCCCAACACAGCGUGGCAAAGUGGCUGUGGCUAGACUGCCUCUCUGGAUUCCUCGUCACUCAGCAGGGCGUCUCUGAGAGAGAUGCC | 0.06
UACGUAGGUGGUUUUCCCCUGAUAGUGCUAAGGGGGCCUGGAAGUUUGGACUGGGCAGAGCCCAACACAGCGUGGCAAAGUGGCUGUGGCUAGACUGCCUCUCUGGAUUCCUCGUCACUCAGCAGGGCAUCUCUGAGAGGAAAGCC | 0.08
UACGUAGGUGGUUUUCCCCUGAUAGUGCUAAGGGGGCCUGGAAGUUUGGACUGGGCAGAGCCCAACACAGCGUGGCAAAGUGGCUGUGGCUAGACUGCCUCUCUGGAUUCCUCGUCACUCAGCAGGGCAUCUCUGAGAGGAACGCC | 0.08
UACGUAGGUGGUUUUCCCCUGAUAGUGCUAAGGGGGCCUGGAAGUUUGGACUGGGCAGAGCCCAAUACAGCGUGGCAAAGUGGCUGUGGCUAGACUGCCUCUCUGGAUUCCUCGUCACUCGGCAGGGCAUCUCUGAGAGAAAUGCC | 0.05
UACGUAGGUGGUUUUCCCCUGAUAGUGCUAAGGGGGCCUGGAAGUUUGGACUGGGCAGAGCCCAACACAGAGAGGCAAAGUGGCUGCGGCUAGACUGCCUCUCUGGAUUCCCCGUCACUCAGCAGGGCAUCUCUGAGAGAAAUGCC | 0.03
UACGUAGGUGGUUUUCCCCUGAUAGUGCUAAGGGGGCCUGGAAGUUUGGACUGGGCAGAGCCCAACACAGUGUGGCAGAGUGGCUGUGGCUAGACUGCCUCUCUGGAUUCCUCGUGACUCAGCAGGGCAUCUCUGAGAGAAAUGCC | 0
UACGUAGGUGGUUUUCCCCUGAUAGUGCUAAGGGGGCCUGGAAGUUUGGACUGGGCAGAGCCCAACACAGCGUGGUAAAGUGGCUGUGGCUGGACUGCCUCUCUGGAUUCCUCGUCACUCAGCGGGGCAUCUCUGAGAGAAAUGCC | 0
UACGUAGGUGGUUUUCCCCUGAUAGUGCUAAGGGGGCCUGGAAGUUUGGACUGGGCAGAGCCCAACACAGCGUGGUAAAGUGGCUGUGGCUAGACUGCCUCUCCGGAUUCCUCGUCACUCAGCAGGGCAUCUCUGAGAGAAGUGCC | 0.02
UACGUAGGUGGUUUUCCCCUGAUAGUGCUAAGGGGGCCUGGAAGUUUGGACUGGGCAGAGCCCAACACAGCGUGGCAAAGUGGUUGUGGCUAGACUGCCUCUCUGGAUUCCUCAUCACUCAGCAGGGCAUCUCUGAGAGAAAUGCC | 0.03
UACGUAGGUGGUUUUCCCCUGAUAGUGCUAAGGGGGCCUGGAAGUUUGGACUGGGCAGAGCCCAACACAGCGUGGCAAAGUGGCUGUGGCUAGACUGCCUCUCUGGAUUCCUUGUCACUCAGCAGGGCGUCUCUGAGAGAAAUGCC | 0.21
UACGUAGGUGGUUUUCCCCUGAUAGUGCUAAGGGGGCCUGGAAGUUUGGACUGGGCAGAGCCCAACACAGCGUGGCAAAGUGGCUGUGGCUAGACUGCCUCUCUGGAUUCCUCGUAACUCAGCAGGGCAUCUCUGAGAGCAAUGCC | 0.04
UACGUAGGUGGUUUUCCCCUGAUAGUGCUAAGGGGGCCUGGAAGUUUGGACUGGGCAGAGCCCAACACAGCGUGGCAAAGUGGCUGUGGCUAGACUGCCUCUCUGGAUUCCUCGUCACUAAGCAGGGCAUCUCUGUGAGAAAUGCC | 0.06
UACGUAGGUGGUUUUCCCCUGAUAGUGCUAAGGGGGCCUGGAAGUUUGGACUGGGCAGAGCCCAACACAGCAUGGCAAGGUGGCUGUGGCUAGACUGCCUCUCUGGAUUCCUCGUCACUCAGCAGGGCAUCUCUGAGAGAAAUGCC | 0.02
UACGUAGGUGGUUUUCCCCUGAUAGUGCUAAGGGGGCCUGGAAGUUUGGACUGGGCAGAGCCCAACACAGCAUGGCAAAGUGGCGGUGGCUAGACUGCCUCUCUGGAUUCCUCGUCACUAAGCAGGGCAUCUCUGAGAGAAAUGCC | 0
UACGUAGGUGGUUUUCCCCUGAUAGUGCUAAGGGGGCCUGGAAGUUUGGACUGGGCAGAGCCCAACACAGCAUGGCAAAGUGGCUGUGGCUAGACUGCCUCUCUGGAAUCCUCGUCACUCAGCAGGGCAUCUCUGAGAGAAAUGCC | 0.02
UACGUAGGUGGUUUUCCCCUGAUAGUGCUAAGGGGGCCUGGAAGUUUGGACUGGGCAGAGCCCAACACAGCGUGGCAAAGUAGCUGUGGCUAGACUGCCACUCUGGAUUCCUCGUCACCCAGCAGGGCAUCUCUGAGAGAAAUGCC | 0.02
UACGUAGGUGGUUUUCCCCUGAUAGUGCUAAGGGGGCCUGGAAGUUUGGACUGGGCAGAGCCCAACACAGCGUGGCAAAGUAGCUGUGGCUAGACUGCCUCUCUGGAUUCCUCGACACUCAGCAGGGCAUCUCUGAGAGAAAUGCC | 0.09
